{"source": "PubChem BioAssay (NCATS)", "note": "Several values for one entry are separate records, joined by “and”; a condition that tells them apart may be missing. Identical values can stand only once. Inconclusive means that the source gave no clear call. Such entries were picked first, then a sample of the others. A potency beside an inconclusive call is a rough fit, not a confirmed value. Activity calls are given as the source filed them. Calls come from the whole dose curve; as a rule, active = well fitted cell-killing curve with a large enough effect; inconclusive = small, poorly fitted or top-dose-only effect; inactive = no such curve, though single readings can be large or run the other way. Potency is the fitted concentration of half-maximal effect; tags give direction and shape of the fitted curve."}
{"assay": "qHTS of pediatric cancer cell lines to identify multiple opportunities for drug repurposing: Primary screen for SK-N-MC cells (AID 1347093)", "settings": "SK-N-MC viability, CellTiter-Glo luminescence, 48 h; activity change, negative = cytotoxic: at 46 µM (top of the series)", "excerpt": "Drug repurposing or repositioning has been offered as a strategy for drug development in oncology programs. This approach has special potential for childhood cancers and other rare or orphan diseases, where the expected return on new drug development has been a disincentive to pharmaceuticals.\nIn this project we exploit the poly-pharmacology of drugs to discover new indications via phenotypic screening of a panel of 19 well-characterized cell lines derived from solid tumors seen in children and adolescents. The goal is to identify approved drugs with previously unrecognized anticancer properties that has the potential to reveal new mechanisms and biological processes involved in carcinogenesis or drug resistance. We employed a titration-based paradigm (quantitative high-throughput screening or qHTS), where all compounds were tested at multiple concentrations for their effect on cell viability. Concentration-response curves (CRCs) were derived directly from the primary screen, and both potency and efficacy values were used to identify compounds with robust bioactivity profiles. We screened the NIH Chemical Genomics Center (NCGC) Pharmaceutical Collection (NPC) and Mechanism Interrogation Plate (MIPE) small molecule collections of approved and investigational compounds against these cell lines; and measured metabolically active cells after 48 hours of compound treatment as a proxy for cell viability.\nAssay Submitter: Nathalia J. Martinez, National Center for Advancing Translational Sciences, National Institutes of Health, Rockville, MD, USA; email: natalia.martinez@nih.gov\n[1] Shen, M et al. Quantitative high-throughput phenotypic screening of pediatric cancer cell lines identifies multiple opportunities for drug repurposing. Oncotarget 2017 Dec 19;9(4):4758-4772. PMID 29435139.\nThe cells were obtained from University of North Carolina (UNC), Pediatric Preclinical Testing Program (PPT), and Coriell Institute (CI).\nqHTS cell viability assay:\nCells were assayed in growth media at a density of 500-1,000 cells/well. Five microliters of cells were dispensed into 1,536-well, white, solid-bottom, TC-treated plates (Greiner Bio One) using a multidrop dispenser and incubated at 37 degrees C, 5% CO2, under a humidified atmosphere for 5 hours. Twenty-three nanoliters of compounds and controls (neutral control DMSO or positive control bortezomib at final concentration of 2.3 µM) were subsequently transferred by Kalypsys pintool. For primary screens, the MIPE collection was tested at 11-point dilutions (final concentrations range from 0.78 nM to 46 µM) and the NPC collection at 8-point dilutions (final concentrations range from 0.59nM to 46 µM). Compounds tested in follow-up screens were assayed at 11-point dilutions. Cells were incubated for 48 hours, followed by addition of 3 uL of CellTiter-Glo (Promega). After a 15 min incubation at room temperature, samples were analyzed for luminescence intensity using a ViewLux High-throughput CCD imager equipped with clear filters."}
{"smiles": "COc1cc2ncnc(Nc3ccc(F)c(Cl)c3)c2cc1NC(=O)C=CCN1CCCCC1", "Potency": "inconclusive: 8.33 µM [cytotoxic, full curve, poor fit]"}
{"smiles": "O=C(O)c1ccc(-n2nc(-c3ccccc3O)nc2-c2ccccc2O)cc1", "Potency": "inconclusive: 23.7 µM [cytotoxic, single point] and inconclusive: 37.2 µM [cytotoxic, single point]"}
{"smiles": "c1ccc(CNc2nc(N3CCOc4ccccc43)nc3c2CCCC3)cc1", "Potency": "inconclusive: 37.2 µM [cytotoxic, single point]"}
{"smiles": "CN1CC(=O)NC1=NC(=O)Nc1cccc(Cl)c1", "Potency": "inconclusive: 23.5 µM [cytotoxic, single point]"}
{"smiles": "Cc1ccccc1C(=O)c1ccc(Nc2ccc(Br)cc2N)cc1Cl", "Potency": "active: 16.6 µM"}
{"smiles": "N=C(N)c1ccc2cc(OC(=O)c3ccc(N=C(N)N)cc3)ccc2c1", "Potency": "inconclusive: 0.0042 µM [cytotoxic, full curve, poor fit]"}
{"smiles": "S=P(N1CC1)(N1CC1)N1CC1", "Potency": "inconclusive: 51 µM [cytotoxic, single point] and active: 3.72 µM"}
{"smiles": "COc1ccc2c(c1)c(CC(=O)O)c(C)n2C(=O)c1ccc(Cl)cc1", "Potency": "inconclusive: 33.5 µM [cytotoxic, single point]"}
{"smiles": "Cn1cnc(-c2cc3nccc(Oc4ccc(NC(=S)NC(=O)Cc5ccccc5)cc4F)c3s2)c1", "Potency": "inconclusive: 29.6 µM [cytotoxic, single point]"}
{"smiles": "O=C(C=Cc1c(C(=O)O)[nH]c2cc(Cl)cc(Cl)c12)Nc1ccccc1", "Potency": "inconclusive: 41.8 µM [cytotoxic, partial curve, poor fit]"}
{"smiles": "CC1(C)OC2CC3C4CC(F)C5=CC(=O)C=CC5(C)C4C(O)CC3(C)[C@]2(C(=O)CO)O1", "note": "(stereo not given in full)", "activity change, negative = cytotoxic": "inactive: 1.92%"}
{"smiles": "CN(C)CCC=C1c2ccccc2C=Cc2ccccc21", "Potency": "inconclusive: 33.5 µM [cytotoxic, single point] and inconclusive: 20.9 µM [cytotoxic, single point]"}
{"smiles": "C[C@@H]1CC(=O)NN=C1c1ccc(NN=C(C#N)C#N)cc1", "Potency": "inconclusive: 21.1 µM [cytotoxic, single point] and inconclusive: 26.6 µM [cytotoxic, partial curve, poor fit] and inconclusive: 37.2 µM [cytotoxic, single point]"}
{"smiles": "CC=CC1=C(C(=O)O)N2C(=O)[C@H](NC(=O)[C@H](N)c3ccc(O)cc3)[C@@H]2SC1", "Potency": "active: 23.5 µM"}
{"smiles": "O=C(NCCS(=O)(=O)c1ccc(C(F)(F)F)cn1)c1ccc(Cl)cc1", "Potency": "inconclusive: 8.33 µM [cytotoxic, single point]"}
{"smiles": "O=C1CN2Cc3c(ccc(Cl)c3Cl)N=C2N1", "Potency": "inconclusive: 29.6 µM [cytotoxic, single point]"}
{"smiles": "CN1CCCN(C(=O)c2cccc(-c3ccc(C=C4C(=O)Nc5ccc(Cl)cc54)o3)c2)CC1", "Potency": "active: 14.8 µM"}
{"smiles": "CNC(=O)c1cc(Oc2ccc(NC(=O)Nc3ccc(Cl)c(C(F)(F)F)c3)cc2)ccn1", "Potency": "active: 3.32 µM and inconclusive: 33.5 µM [cytotoxic, single point]"}
{"smiles": "N#CC(=C(O)c1ccc(Cl)cc1Cl)c1nc2cc(Cl)ccc2c(=O)[nH]1", "Potency": "inconclusive: 23.5 µM [cytotoxic, single point]"}
{"smiles": "CCCCS(=N)(=O)CCC(N)C(=O)O", "note": "(stereo not given)", "Potency": "inconclusive: 37.2 µM [cytotoxic, single point]"}
{"smiles": "COc1cc(C=CC(=O)O)ccc1O", "Potency": "active: 20.9 µM"}
{"smiles": "CCOc1cc(C(=O)Nc2ccc(Cl)c(-c3nc4ccccc4[nH]3)c2)cc(OCC)c1OCC", "Potency": "inconclusive: 26.4 µM [cytotoxic, partial curve, poor fit]"}
{"smiles": "Cn1c(CNc2ccc(C(=N)N)cc2)nc2cc(C(=O)N(CCC(=O)O)c3ccccn3)ccc21", "Potency": "inconclusive: 18.2 µM [cytotoxic, single point]"}
{"smiles": "CCN(CC)CCOc1ccc(Cc2ccccc2)cc1", "Potency": "inconclusive: 26.6 µM [cytotoxic, partial curve, poor fit]"}
{"smiles": "COc1cc2ncnc(Nc3cc(Br)c(O)c(Br)c3)c2cc1OC", "Potency": "active: 0.0066 µM"}
{"smiles": "O=C(NC[C@H](O)CO)c1ccncc1Nc1ccc(I)cc1F", "Potency": "active: 5.26 µM"}
{"smiles": "CC[C@H](CC[C@@H](C)[C@H]1CC[C@H]2[C@@H]3CC=C4C[C@@H](O)CC[C@]4(C)[C@@H]3CC[C@]12C)C(C)C", "Potency": "inconclusive: 33.2 µM [cytotoxic, single point]"}
{"smiles": "Cc1cnc(NC(=O)C2=C(O)c3ccccc3S(=O)(=O)N2C)s1", "Potency": "inconclusive: 20.9 µM [cytotoxic, partial curve, poor fit]"}
{"smiles": "Cn1cc(C[C@@H](N)C(=O)O)c2ccccc21", "activity change, negative = cytotoxic": "inactive: -20.9% [at 16.1 µM]"}
{"smiles": "CCCCC[C@H](O)C=C[C@H]1[C@H](O)CC(=O)[C@H]1CCCCCCC(=O)O", "activity change, negative = cytotoxic": "inactive: -20.8%"}
{"smiles": "CC(=O)NC[C@H]1CN(c2ccc(N3CCOCC3)c(F)c2)C(=O)O1", "activity change, negative = cytotoxic": "inactive: 101%"}
{"smiles": "C[C@H]1COC2=C1C(=O)C(=O)c1c2ccc2c1CCCC2(C)C", "Potency": "inconclusive: 41.8 µM [cytotoxic, partial curve, poor fit]"}
{"smiles": "CC(C)(C)OC(=O)Nc1ccc(-c2cc(C(=O)NCCCCCCC(=O)NO)no2)cc1", "Potency": "active: 0.833 µM"}
{"smiles": "CCOC(=O)[C@@H](N)CCC(=O)N[C@@H](CSCc1ccccc1)C(=O)N[C@@H](C(=O)OCC)c1ccccc1", "Potency": "inconclusive: 37.2 µM [cytotoxic, single point]"}
{"smiles": "C[C@H]1O[C@@H](n2cc(F)c(=O)[nH]c2=O)[C@H](O)[C@H]1O", "Potency": "inconclusive: 29.6 µM [cytotoxic, single point]"}
{"smiles": "CC(C)c1onc(-c2c(Cl)cccc2Cl)c1COc1ccc(C=Cc2cccc(C(=O)O)c2)c(Cl)c1", "Potency": "active: 16.6 µM"}
{"smiles": "Cc1cc2c(F)c(Oc3ncnn4cc(OC[C@@H](C)O)c(C)c34)ccc2[nH]1", "Potency": "active: 0.264 µM"}
{"smiles": "C[C@@H](NCc1cc2ccccc2[nH]1)c1cccc2ccccc12", "Potency": "inconclusive: 37.2 µM [cytotoxic, single point]"}
{"smiles": "COC1CCC(C(=O)c2ccc3nc4c(cc3c2)CCCO4)CC1", "note": "(stereo not given)", "Potency": "inconclusive: 29.6 µM [cytotoxic, single point]"}
{"smiles": "C#CCN(C)CC1=Cc2ccccc2Oc2ccccc21", "Potency": "inconclusive: 26.4 µM [cytotoxic, partial curve, poor fit]"}
